Assay results from the RNAGym collection of RNA variant scans (doi:10.7554/elife.90254).
Read counts are not given, so values of variants with three or more changes are uncertain.

B1: OR4K15 (parent)
chain: GUUAACGGUCAUAGGCCAUGGAAACUAGGAGCACCAUUUCGCUGCCAGUGAAGAAAUGAACAAAGAAAAUCUGGGCCAGGCAGGCAUCAAAAGAAAUAGUCUUGCGCUCAACCAGAAAGUCUGUAAUCAUUUUAAGGGUA

Variants of: B1
Assay: self-cleavage, relative activity (ratio to wild type); higher = more cleavage; in vitro, sequencing; the parent is a self-cleaving ribozyme

Row | Variant | self-cleavage
1 | A11G A13G U122C U132A | 1.05
2 | G15U A23G U70C | 0.86
3 | U49A A60G A90U | 0.83
4 | A5G U37C A51G A52U | 0.51
5 | G84U U87A A90G A125U G138A | 0.4
6 | C40U U43G A66G A89G A96G A129U | 0.57
7 | A54U A56G A110U | 1.35
8 | U9C U12A U38C A82G A118G U133A | 1.02
9 | A64U A111G A129G | 0.01
10 | C6U A30U A96U U122C | 0.48
11 | U12C A23G U49A A52G A126G | 0.94
12 | A30G A110C U124C U133C | 0.29
13 | U38C A68G U103C | 2
14 | A54G A59G A91G | 0.53
15 | U43C A89U A96G U124A U131C A135G | 0.64
16 | A5G A18G U72A A92G A118G U130C | 0.13
17 | A55G A62G A117C | 0.29
18 | A5G A47C U70C U100A | 0.31
19 | U9A U57G A96G | 1.34
20 | A52G A62G A78G A91G | 0.16
21 | A4G A24G A54G A82G U87C A110C | 0.17
22 | A63G A94G A129U | 0.83
23 | G1A A24G A62G | 2.04
24 | A27U A68G U100C | 2.5

Row | Variant | self-cleavage
25 | U9C C16A U19A | 1.17
26 | A24G A51G A95G U122C | 1.06
27 | A24G U49A A94U U122C | 1.87
28 | U43A G53A A66G | 1.36
29 | A23G A47U A86G A126G | 0.19
30 | A33U C85U U122G | 1.95
31 | A78U A95G A125G | 0.12
32 | U49C A95G U132C | 0.83
33 | G20A A66G A110G | 0.19
34 | C32U G123U U130C | 1.68
35 | U100C U108C U122C | 0
36 | A51C A52U A54G A98U | 2.04
37 | C40U A60C A68G | 1.77
38 | U38A U43C U49G | 1.35
39 | A47U A64G A66G G99A | 0.17
40 | A22G A92G U122C | 1.1
41 | U9C A30U C61U | 1.32
42 | A51G A52G A55G U70C | 0.63
43 | G7A U39C A90G | 0.42
44 | A82C A90G U108C | 0.02
45 | A11G A82G C107A | 0.11
46 | U43A U70C U120C U124C | 0.03
47 | U9C A59G A118G | 0.88
48 | U49A A51U A67G U72A | 0.35

Row | Variant | self-cleavage
49 | U19A U38C A96G | 1.78
50 | A51G A78C A96G U108A | 0.02
51 | A24G A47G A55G A110G | 0.19
52 | A36G U37C A67G U72C A89G A117G | 0.25
53 | U70C A82G U122C | 0.11
54 | U9A A52G A92G | 1.26
55 | A5G U38A A94G U97A U130C | 0.7
56 | A4G A11G A24U A63G | 0.97
57 | A5U A18G A36U A54G A59G | 1.06
58 | C34G A82U U87C | 0.13
59 | G28U U57C U72A U87C U127C | 0.04
60 | U39C A52C U100C A134G | 1.58
61 | C88U A125G U132C | 0.37
62 | A11G U38C U70C A94C U122C | 0.41
63 | U39C U49C A118U | 0.08
64 | U3C A13U C77U U87C U132C | 1.29
65 | A22G A82G U103C | 1.57
66 | A27U U43C A59G U127C | 1.88
67 | A60G A63U A68G A86G | 0.18
68 | A59G A62G A92G | 1.11
69 | C32A U57G A94G | 1.4
70 | A27G A47G A67G A68G U103C | 0.74
71 | U9C A30G A86G U87C A89G | 1.11
72 | U2C A24G A62G U122G U131C | 2.23

Row | Variant | self-cleavage
73 | A68G A90G A110G | 0.11
74 | G1A A13G A52U U72C U127C | 0.2
75 | A22G A86G A118U | 0.29
76 | A30G A52C U103C A117G | 1.2
77 | A47G G104A U122A | 0.02
78 | U12C U57C A62G A90G | 0.82
79 | U2C A13U A24G U39A | 0.95
80 | A56C U87C A89U A110U | 0.46
81 | A27G A51C A78G | 0.49
82 | A36G A47U U100C | 0.73
83 | A24G G80U A134G | 0.1
84 | A23G A69G A82G A92G U120C | 0.29
85 | A11G A82G A129G | 0.25
86 | U26C G28A A33G A64G | 0.44
87 | G1A A60U A69C U103C | 1.2
88 | A11G U100C U120C U132C | 2.11
89 | U39A A64G U100C U102A U122A | 2.41
90 | A13G A78G A111G G137U | 0.1
91 | U49A A56G A95G A114G | 0.74
92 | A18U A118G U130C | 0.54
93 | C46U A63G A67G A94G A114G | 1.23
94 | A22G U43C C76U | 0.26
95 | U2C U19A A33G A52G U120C U132C | 0.65
96 | A11G U19C U43C A68G U133A | 0.81

Row | Variant | self-cleavage
97 | A86G A116C U131C | 0.1
98 | A11G U26A C85A A117G | 1.64
99 | A55G A68G U72C A111U U124C | 0.03
100 | A13U C42G A110G | 0.16
101 | A5U U39C A67U U131C | 1.49
102 | A78G A89G U130C U132C | 0.34
103 | U2C U9A U37C A114G | 0.27
104 | A22G A54G A67G C76U A82U A95U U120C | 0.08
105 | U9C A11G A54U A82U A110G U127C | 0.03
106 | A51U A60G A63G | 1.48
107 | U19A A36G A56G A114G | 0.28
108 | A22G A98G U103C U122A | 0.01
109 | G7A U43C A52C A90G A92G U127C | 0.4
110 | G7A A24G U38C U122C | 1.15
111 | A11G A18G U26C A114U | 0.04
112 | U9C A52C A116G | 0.17
113 | A13G A89U C113U | 0.13
114 | A24G A62G A68G C113U | 0.03
115 | A30G A33G A60G | 0.59
116 | A5G A27U A69U A89G A110G A117G | 0.08
117 | A52G A60U U70C A95G | 1.55
118 | A5G U49C A92U | 0.6
119 | U9C A54G A68G U72A | 0.28
120 | A60U A90G A96G | 0.45

Row | Variant | self-cleavage
121 | A114U A117G U130C | 0.03
122 | A11G A64G A111G | 0.06
123 | U2C A23G A59G A118U | 0.31
124 | U9C G29A A55G A67G | 1.62
125 | A33G A51G A68G | 0.81
126 | U43C A82G U87C A90U A91G | 0.23
127 | A5G A66U U130C | 0.44
128 | U19A A54G A78U G106C | 0.01
129 | A52U A90U A110C | 0.24
130 | A30G U43A A56G A60U A67G A96G | 1.44
131 | U70C G80U U103C A118G | 0.04
132 | C40U U87C C107U | 0
133 | A24G A52G U57C A140U | 1.35
134 | A4G U122C U132C | 0.66
135 | A91G A92G U131C | 0.08
136 | A18U A24G U38A | 1.48
137 | U26C A67C A126G | 1.29
138 | A68U A116G A129G | 0.51
139 | A55G A59G A94G A116G | 0.3
140 | U2C U9C A18G A111G | 0.12
141 | A5G U12C A22G A27G C32U A54G | 1.42
142 | A22G A24G A66U A118G | 1.14
143 | U49A A117G U131C | 1.16
144 | U2C U49C A90G | 0.33

Row | Variant | self-cleavage
145 | A18G U49A A67G A68G A114G A117G | 0.49
146 | U12A A30U U38C A56G | 0.79
147 | A11G U43C A129G | 0.45
148 | A24G A55U A89G A96G | 0.84
149 | A18G U37C U43C A51G | 1.43
150 | A36G A59U A60G A62G A90G | 0.87
151 | A11G A54G A96G A134G | 0.96
152 | A30G A33U A68G G106A A117G | 0
153 | A95G A111U A116U | 0.07
154 | A24G U38C A68U A78U A98G A118G U131C | 0.03
155 | A11U A82G U100A | 0.11
156 | G1A A23U C45U U127C | 0.97
157 | A51G A59G U100C | 1.57
158 | C81U A118G U132C | 0.09
159 | U19C U87C A117G | 1.8
160 | A24G U70C U100C | 1.96
161 | A11C A62U U103C | 1.86
162 | A59U A89G U127C | 0.63
163 | C76U G83U U87C U102C A116G | 0.11
164 | A18U U37C A114U | 0.02
165 | U49G A94G U100A | 0.36
166 | A4C U38C U100C | 1.52
167 | A59G A62U A63G | 1.92
